# A collection of fitness landscapes (doi:10.1016/j.celrep.2020.107928)
# In all, about 81,000 sequences were measured (“one-hybrid fitness for binding parS DNA”: median about -0.17, highest 2% from about 0.51 on). This is one part of the list.
# B1: Caulobacter ParB omega fusion; a variant is named by its letters at X, in order, B8GW30 (parent)
# chain: MESVVVGEPGMSEGRRGLGRGLSALLGEVDAAPAQAPGEQLGGSREAPIEILQRNPDQPRRTFREEDLEDLSNSIREKGVLQPILVRPSPDTAGEYQIVAGERAWRAAQRAGLKTVPIMVRELDDLAVLEIGIIENVQRADLNVLEEALSYKVLMEKFERTQENIAQTIGKSXSHVANXMRLLXLPDEVQSYLVSGELTAXHARAIAAAADPVALAKQIIEGGLSVRETEALARKAPNLSAGKSKGGRPPRVKDTDTQALESDLSSVLGLDVSIDHRGSTGTLTITYATLEQLDDLCNRLTRGI
# Variants of: B1
# Test: one-hybrid fitness for binding parS DNA (scaled: cognate 1, non-cognate 0); higher = stronger binding
# Details: with parS DNA site
# How it was run: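 The reporter was HIS3, with the binding site 19 bp from the promoter, in E. coli USO used for bacterial one-hybrid selection of Caulobacter ParB libraries with four specificity codons randomised. Growth was on M9 lacking histidine, with 0.1 mM IPTG and 5 mM 3-AT, for 48 hours at 37°C. Illumina sequencing covered plasmids before and after selection; three replicate libraries were pooled and variants with under 10 reads dropped. A fitness score is the log change in variant-to-wild-type read ratio, rescaled to the cognate and non-cognate references.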
row,Variant,one-hybrid fitness for binding parS DNA
1,KVPA,≤ 0.2
2,MRNT,≤ 0.2
3,FIFV,≤ 0.2
4,SCKH,≤ 0.2
5,GAHV,≤ 0.2
6,TRWH,≤ 0.2
7,HDRM,≤ 0.2
8,WTRM,≤ 0.2
9,SQSI,≤ 0.2
10,SILL,≤ 0.2
11,TYTN,≤ 0.2
12,PHPI,≤ 0.2
13,RVVP,≤ 0.2
14,VWTV,≤ 0.2
15,ELNA,≤ 0.2
16,RVLR,≤ 0.2
17,RLFY,0.467
18,AWGS,≤ 0.2
19,LRNY,≤ 0.2
20,ITCT,≤ 0.2
21,NCAT,≤ 0.2
22,KWVD,≤ 0.2
23,AYAA,≤ 0.2
24,DNAL,≤ 0.2

row,Variant,one-hybrid fitness for binding parS DNA
1,ETPV,≤ 0.2
2,LFNN,≤ 0.2
3,NRCR,≤ 0.2
4,HSTS,≤ 0.2
5,NVYL,≤ 0.2
6,STDC,≤ 0.2
7,KRKE,≤ 0.2
8,FLVT,≤ 0.2
9,CISN,≤ 0.2
10,VRWH,0.223
11,SVPL,≤ 0.2
12,INKR,≤ 0.2
13,KAMS,≤ 0.2
14,SSSM,≤ 0.2
15,EHVV,≤ 0.2
16,VMNY,≤ 0.2
17,PQTV,≤ 0.2
18,ADVI,≤ 0.2
19,QHWA,≤ 0.2
20,ITGT,≤ 0.2
21,CPKS,≤ 0.2
22,SKKM,≤ 0.2
23,YTNH,≤ 0.2
24,CTIN,≤ 0.2

row,Variant,one-hybrid fitness for binding parS DNA
1,GEDF,≤ 0.2
2,RHVE,≤ 0.2
3,APIN,≤ 0.2
4,RKIL,≤ 0.2
5,WPTR,≤ 0.2
6,RMPT,0.625
7,HWPK,≤ 0.2
8,VNWT,≤ 0.2
9,AAYD,≤ 0.2
10,FRAG,≤ 0.2
11,KKSF,≤ 0.2
12,TLEQ,≤ 0.2
13,SAAY,≤ 0.2
14,NSGT,≤ 0.2
15,KCRS,≤ 0.2
16,GPWT,≤ 0.2
17,VERQ,≤ 0.2
18,QFLF,≤ 0.2
19,RSTA,0.578
20,RIWF,0.282
21,HSIY,≤ 0.2
22,RANR,≤ 0.2
23,TRNQ,≤ 0.2
24,KQIS,≤ 0.2

row,Variant,one-hybrid fitness for binding parS DNA
1,YGPM,≤ 0.2
2,EYMV,≤ 0.2
3,CNTA,≤ 0.2
4,RYTC,0.903
5,WTKT,≤ 0.2
6,GLLK,≤ 0.2
7,QPLG,≤ 0.2
8,TKHK,≤ 0.2
9,QHDR,≤ 0.2
10,VGWL,≤ 0.2
11,RNSP,≤ 0.2
12,TCHC,≤ 0.2
13,YRKQ,≤ 0.2
14,RAAS,1
15,RKPE,≤ 0.2
16,SDQC,≤ 0.2
17,QSPQ,≤ 0.2
18,VKRC,≤ 0.2
19,WVIR,≤ 0.2
20,QGAR,≤ 0.2
21,KIYS,≤ 0.2
22,AVAG,≤ 0.2
23,QDYV,≤ 0.2
24,LPQD,≤ 0.2

row,Variant,one-hybrid fitness for binding parS DNA
1,RRCT,0.587
2,SNSC,≤ 0.2
3,MFPG,≤ 0.2
4,SIPY,≤ 0.2
5,TVAV,≤ 0.2
6,SNYL,≤ 0.2
7,LKMC,≤ 0.2
8,RADH,≤ 0.2
9,PDKA,≤ 0.2
10,LTQG,≤ 0.2
11,TVPL,≤ 0.2
12,RWGA,0.386
13,PGIR,≤ 0.2
14,CKTW,≤ 0.2
15,MMTI,≤ 0.2
16,RIGM,0.268
17,RHSM,0.261
18,AEHC,≤ 0.2
19,ERCT,≤ 0.2
20,TYKH,≤ 0.2
21,VVGC,≤ 0.2
22,PWRF,≤ 0.2
23,NCHI,≤ 0.2
24,CRQF,≤ 0.2

row,Variant,one-hybrid fitness for binding parS DNA
1,NHNG,≤ 0.2
2,TTEA,≤ 0.2
3,KVCR,≤ 0.2
4,ASRN,≤ 0.2
5,LSKH,≤ 0.2
6,GWNG,≤ 0.2
7,KRQM,≤ 0.2
8,YEGS,≤ 0.2
9,QYDY,≤ 0.2
10,TTQS,≤ 0.2
11,DETC,≤ 0.2
12,TGMW,≤ 0.2
13,HYYV,≤ 0.2
14,TLLE,≤ 0.2
15,HQIG,≤ 0.2
16,PLKK,≤ 0.2
17,HYKN,≤ 0.2
18,LKES,≤ 0.2
19,QPVE,≤ 0.2
20,TLFT,≤ 0.2
21,TEKC,≤ 0.2
22,TRMR,≤ 0.2
23,NYFD,≤ 0.2
24,DWES,≤ 0.2

row,Variant,one-hybrid fitness for binding parS DNA
1,QQFR,≤ 0.2
2,YAHF,≤ 0.2
3,SGYY,≤ 0.2
4,PYKY,≤ 0.2
5,RHRI,≤ 0.2
6,RVFC,0.972
7,MHQC,≤ 0.2
8,DVGG,≤ 0.2
9,TFAM,≤ 0.2
10,FANF,≤ 0.2
11,RSPE,≤ 0.2
12,NVEC,≤ 0.2
13,AARY,≤ 0.2
14,MYTY,≤ 0.2
15,MYKR,≤ 0.2
16,AALD,≤ 0.2
17,PKRW,≤ 0.2
18,GVAT,≤ 0.2
19,QSDV,≤ 0.2
20,VDYY,≤ 0.2
21,LNQR,≤ 0.2
22,CYLT,≤ 0.2
23,YMLR,≤ 0.2
24,GLHV,≤ 0.2

row,Variant,one-hybrid fitness for binding parS DNA
1,RIRW,0.25
2,RQNK,≤ 0.2
3,HFET,≤ 0.2
4,PCGG,≤ 0.2
5,HPHH,≤ 0.2
6,QHFS,≤ 0.2
7,PTNW,≤ 0.2
8,RQFP,≤ 0.2
9,TQFG,≤ 0.2
10,TVER,≤ 0.2
11,SSKI,≤ 0.2
12,YTSY,≤ 0.2
13,TMQL,≤ 0.2
14,PSLF,≤ 0.2
15,IVNY,≤ 0.2
16,LYET,≤ 0.2
17,LRKT,≤ 0.2
18,RIQE,≤ 0.2
19,KTAR,≤ 0.2
20,ITGR,≤ 0.2
21,TMYY,≤ 0.2
22,EFLC,≤ 0.2
23,PFKY,≤ 0.2
24,ALSQ,≤ 0.2

row,Variant,one-hybrid fitness for binding parS DNA
1,YTCG,≤ 0.2
2,TDCF,≤ 0.2
3,VPAP,≤ 0.2
4,TTPI,≤ 0.2
5,VVMV,≤ 0.2
6,ICHS,≤ 0.2
7,YVCS,≤ 0.2
8,GNMW,≤ 0.2
9,HAVY,≤ 0.2
10,PVKV,≤ 0.2
11,RFMN,0.242
12,PIMD,≤ 0.2
13,CKSM,≤ 0.2
14,RGTL,≤ 0.2
15,MRCR,≤ 0.2
16,DARF,≤ 0.2
17,IMHT,≤ 0.2
18,DVAT,≤ 0.2
19,LRMC,≤ 0.2
20,KSFS,≤ 0.2
21,IYQC,≤ 0.2
22,HHTI,≤ 0.2
23,GYDP,≤ 0.2
24,QTWF,≤ 0.2

row,Variant,one-hybrid fitness for binding parS DNA
1,WPSN,≤ 0.2
2,GELT,≤ 0.2
3,WTHT,≤ 0.2
4,MEIR,≤ 0.2
5,VFYS,≤ 0.2
6,TRGF,≤ 0.2
7,RAPT,0.434
8,PRNM,≤ 0.2
9,IATS,≤ 0.2
10,DTCG,≤ 0.2
11,WLNS,≤ 0.2
12,GYQG,≤ 0.2
13,DAAP,≤ 0.2
14,CTNC,≤ 0.2
15,LVYS,≤ 0.2
16,CMPS,≤ 0.2
17,EQST,≤ 0.2
18,HGRG,≤ 0.2
19,NNTT,≤ 0.2
20,SISI,≤ 0.2
21,LLTN,≤ 0.2
22,FACT,≤ 0.2
23,MQAE,≤ 0.2
24,QQVM,≤ 0.2

row,Variant,one-hybrid fitness for binding parS DNA
1,YVVN,≤ 0.2
2,RIVD,≤ 0.2
3,ILHR,≤ 0.2
4,KLEI,≤ 0.2
5,CMPR,≤ 0.2
6,AENV,≤ 0.2
7,IFPN,≤ 0.2
8,CRGF,≤ 0.2
9,DQNE,≤ 0.2
10,VLWT,≤ 0.2
11,KYSR,≤ 0.2
12,LSIW,≤ 0.2
13,LTGC,≤ 0.2
14,DIEF,≤ 0.2
15,HTPD,≤ 0.2
16,GNET,≤ 0.2
17,WTYG,≤ 0.2
18,HVAG,≤ 0.2
19,PDPY,≤ 0.2
20,LPPA,≤ 0.2
21,AIAL,≤ 0.2
22,SPAH,≤ 0.2
23,DHYR,≤ 0.2
24,KPSP,≤ 0.2

row,Variant,one-hybrid fitness for binding parS DNA
1,QERD,≤ 0.2
2,KEVF,≤ 0.2
3,MHDR,≤ 0.2
4,TYRA,≤ 0.2
5,ANGC,≤ 0.2
6,EAMG,≤ 0.2
7,GDHL,≤ 0.2
8,EHNE,≤ 0.2
9,FEHR,≤ 0.2
10,LTGW,≤ 0.2
11,FRQY,≤ 0.2
12,SWFS,≤ 0.2
13,QVSC,≤ 0.2
14,AYLS,≤ 0.2
15,QLWD,≤ 0.2
16,VSDY,≤ 0.2
17,HQSQ,≤ 0.2
18,QLLE,≤ 0.2
19,QNTT,≤ 0.2
20,ISIA,≤ 0.2
21,PDDD,≤ 0.2
22,TYGD,≤ 0.2
23,HPNE,≤ 0.2
24,FACF,≤ 0.2

row,Variant,one-hybrid fitness for binding parS DNA
1,TRLF,≤ 0.2
2,ESYK,≤ 0.2
3,QQAD,≤ 0.2
4,PVHR,≤ 0.2
5,VTPM,≤ 0.2
6,LQTT,≤ 0.2
7,ALPH,≤ 0.2
8,VNME,≤ 0.2
9,TVFI,≤ 0.2
10,RKWS,0.955
11,NFCR,≤ 0.2
12,SVTR,≤ 0.2
13,FPDL,≤ 0.2
14,NKFG,≤ 0.2
15,SIWM,≤ 0.2
16,NEGC,≤ 0.2
17,RKEC,0.893
18,ATQL,≤ 0.2
